In the supplement of paper PMC11383711:
The list shows a part of the results. Binding of human antibodies (heavy:light variable regions, tested as scFv in one mRNA-display pool) to influenza hemagglutinin, with or without the stem antibody CR9114 bound first. Score = (mean enrichment − median) / interquartile range of that screen; higher = more enriched, 0 = typical non-binder. Active = above the paper's cut-off per screen: stems 28; unblocked H1 Solomon Islands 5, H1 Michigan 3, H3 5, H5 19, H7 2.85, both B 5; blocked 9, 7, H5 10, H7 10, B Phuket 10, B Lee 11.5. Scores are scaled within each screen and are no affinities; replicates correlate at about 0.6 to 0.9, and antibodies rare in the pool are noisier.

B1: antibody 2B03 (protein)
chain 1: QVQLQESGPGLVKPSQTLSLTCTVSGASVGSGTYYWTWIRQRPGTGLEWIGYIYDSGTTYYNPSLRSRLIISSDTSTNHFSLNLKSVTAADTAVYYCARVGHGDYVGYLDYWGQGILVTVSS
chain 2: SYELTQPLSVSVALGQTARITCGGSNIGSKNVHWYQQKPGQAPILAIYRDNNRPSGIPERFSGSNSGNTATLIISRAQAGDEADYYCQVWDTSIAVVFGGGTKLTVL
B2: antibody 3G01 (protein)
chain 1: VQLVESGGGVVQPGRSLRLSCAASGFTFGSYGMHWVRQAPGKGLEWVSVIYYDGRNKYYADSVKGRFTISRDNLKNTLYLQMNSLRAEDTAVYYCARDHNSYHYFDYWGRGTLVTVSS
chain 2: NFMLTQPRSVSGSPGETVTISCTSSGRIVSGYVQWCQQRPGSAPITVIYESDQRPSGVPNRFSGSIDSSSQSASLTISGLETEDEADYYCQSSDRDNQGIFGGGTRLTVL
B3: K77-2D01 (protein)
chain 1: QVQLVQSGAEVKKPGASVKVSCKASGYTFTDHHMHWVRQAPGQGLEWMGMINPSAASITYAPRFLGRVTMTRDTSTSTVYMELSSLRPEDTAVYYCAKVGIAVTGRGPHFYYYGLDVWGQGTTVTVSS
chain 2: EIVLTQSPGTLSLSPGERATLSCRASQSVSDSYLAWYQHKPGQAPRLLMYGASSRATGIPERFSGSGSGTDFTLTISRLEPEDFAVYYCHRHGGVFGGGTKVEIK
B4: antibody 4D02 (protein)
chain 1: VQLVESGGGLIQPGGSLRLSCAASGFTVSSNYVSWVRQAPGRGLEWVSIIYSDGRTYYADSVKGRFNISRDNSKNTLYLQMNSLRAEDTAVYYCARDFYGDYYNNGMDVWGQGTTVTVSS
chain 2: DIQMTQSPSSLSASVGDRVTITCRAGQSISNYLNWYQQKPGRAPKLLISGASSLQAGVPSRFSGSGSGTDFTLTISSLQREDFATYYCQQSYSIPQTFGQGTKVEIK
B5: 56.j.01 (protein)
chain 1: QVQLVQSGAEMKKPGASVKVSCKASGYTFTNYYIHWMRQAPAQGLEWMGIINPSDDSTTYAQRFQGRVTMTSDTSTSTVYMELSSLRSEDTAVYYCAKLGYWTDDYWGQGTLVTVSS
chain 2: DIQMTQSPSSLSASVGDRVTITCRASQGIGNYLAWYQQKPGKVPKLLIFAASTLQSGVPSRFSGSGSGTDFTLTISSLQPEDVATYYCQIFNSALGPLTFGGGTKVEI
B6: 01.o.02 (protein)
chain 1: QVQLQESGPGLVKPSETLSLICTVSSYSITSGYYWGWIRQPPGKGLEWIGNVYHSGSTHYNPSLKSRVTISLDTPKKQVSLRLSSLTAADTAVYYCTHSIIGNGRDFWGQGTLVAVSS
chain 2: EIVMTQAPGTLSWSPGERTTLSGRASQQVSIIYLAWYQQRPEQAPSLIMYGASSRARGIPDRFSGRGLGTDFTLIISRQEPEDSTEYCCQQCGSTYLTFGQGTKVEIK
B7: K77-1D03 (protein)
chain 1: EVQLFESGGDLIQPGGSLRLSCAAFAFTFSSYAMTWVRQAPGKGLEWVSGISGSGYRTHYADSVKGRFTISRDNSKNTLYLQMNSLRGEDTAVYYCAKVSSDFTIYGEGYYYYDMDVWGQGTTVTVSS
chain 2: DIQMTQSPSSLSASVGDRVTIACRASQYIRTYLNWYQQKIGKAPKALIYGASDLESGVPSRFSGSGSGTDFNLTISSLQPEDFATYYCQQTYTTPPFTFGPGTKVEIK
B8: antibody 3E01 (protein)
chain 1: VQLVQSGAEVKKPGASVKVSCKTSGYTFTIYEINWVRQATGQGLEWMGTMNPNSATTGSAQKFQGRLTMTGNTSLRTTYMELSSLTSEDTAVYYCARLVSCGGDCYYFDSWGQGTLVTVSS
chain 2: SYELTQAPSVSVAPGQTARIPCGGNNIGTKSVHWYQQRPGQAPVLVVYDDSDRPSGIPERFSGSNSGNTATLTISRVEAGDEADYYCQVWDSSGDQFGGGTKLTVL
B9: R95-2A04 (protein)
chain 1: QVQLEQSGAEVKKPGASMKVSCKTSGYSFNAYFIHWVRQAPGQGLEWMGRINPTSGGTDYAQRFQDRVTMTRDTSINTAYMELSRLKSDDSALYYCTRALYYDSIAYYFDYWGRGTLVTVSS
chain 2: SYELTQPPSVSVSPGQTASITCSGDELGKKYACWYQQKPGQSPAMVIYGDNKRPSGIPERFSGSNSGDTATLTISGTQAVDEAGYYCQTWDSRTAVFGTGTKV
B10: antibody 2F01 (protein)
chain 1: ESGGGLIQPGGSLRLSCVASGFTINSFAMSWVRQAPGKGLQWVSSVNEQATYYAESVEGRFTISRDRSRNTLFLQMNYLRVEDTATYYCANDVDGDAGTWFESWGQGALVTVSS
chain 2: EIVMTQSPDTLSVSPGERATLFCRASQNVKSNLTWYQQRPGQPPRLLIFGASTRATGVPARFSGSGSGTEFTLSISSLQSEDSAIYSCQQYNDWPPTFGQGTKVEIK
B11: antibody 3F05 (protein)
chain 1: VQLVESGGGVVQPGRSLRLSCAASGFTFMSYNIHWFRQAPGKDLQWVAVVWYEGSTKFYGDSVKGRLTISRDNSKDMVYLQMNNLRAEDTAIYYCAREAVSPGPDDIYFGMDVWGHGTTVTVSS
chain 2: EIVLTQSPATLSLSPGERATLSCRASQSVGSYLAWYQQKPGQAPRLLIYDVSNRATGIPARFIGSGSGTDFTLTISSLEPEDSAVYYCQQRSNWPPGVTFGPGTKVDIK
B12: W85-2B12 (protein)
chain 1: EVQLVESGGGVVQPGRSLRLSCAVSGFTFSSFAMHWVRQAPGKGLEWMAVISYNGINKDYADSVKGRFTISRDNSKNTLYLQVSSLRPEDTAVYYCASGQRQFDYFPDGDYYYFDSWGQGTLVTVSS
chain 2: QSALTQPASVSGSPGQSITISCTGTSSDVGGYNYVSWYQQHPGKAPKLMIYEVNNRPSGVSNRFSGSKSGNTASLTISGLRAEDEADYYCSSYTSTSPLVFGGGTKLTVL
B13: antibody 3G02 (protein)
chain 1: VQLVESGGGVVQPGGSLRLSCAASSFTFRNYAMFWVRQAPGKGLEWLALIRNDGSEQNYAEVVKGRFTISRDNSKKTLYLQMNSLRPEDTAVYYCARNHLYAAYNSYYYGMDDWGQGTTVTVSS
chain 2: DIQMTQSPSSLSTSVGDRVTITCQASQGIRNFLNWYQQKPGKAPKLLIYDASILETGIPSRFSGSGSGTDFTFTINSLQPEDIAIYYCQQYVNFPLTFGGGTKVEIK

Assays:
Experiment in all cases: mRNA display binding score; higher = more enriched on the antigen
[1] = biological target: Influenza A H1N1 A/Michigan/45/2015 hemagglutinin ectodomain
Method: (§1)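 A pool of natively paired antibodies, displayed as scFv on mRNA, was selected once on antigen-coated beads and sequenced before and after; two replicates.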

[2] = biological target: Influenza A H1N1 A/Solomon Islands/3/2006 hemagglutinin ectodomain
Method: as §1

[3] = biological target: Influenza A H3N2 A/Singapore/INFIMH-16-0019/2016 hemagglutinin ectodomain; details: antigen blocked with: nothing
Method: as §1

[4] = biological target: Influenza A H5N1 A/Qinghai/1A/2005 hemagglutinin ectodomain
Method: as §1

[5] = biological target: Influenza A H7N9 A/Shanghai/2/2013 hemagglutinin ectodomain
Method: as §1

[6] = biological target: Influenza B/Lee/1940 hemagglutinin ectodomain
Method: as §1

[7] = biological target: Influenza B/Phuket/3073/2013 hemagglutinin ectodomain
Method: as §1

[8] = antigen blocked with: 2 µM CR9114 IgG

Row | Binder | mRNA display binding score [1, 8] | mRNA display binding score ([1]; antigen blocked with: nothing) | mRNA display binding score [2, 8] | mRNA display binding score ([2]; antigen blocked with: nothing) | mRNA display binding score [3] | mRNA display binding score [4, 8] | mRNA display binding score ([4]; antigen blocked with: nothing) | mRNA display binding score [5, 8] | mRNA display binding score ([5]; antigen blocked with: nothing) | mRNA display binding score [6, 8] | mRNA display binding score ([6]; antigen blocked with: nothing) | mRNA display binding score [7, 8] | mRNA display binding score ([7]; antigen blocked with: nothing)
1 | B1 | active: 34.9 | inactive: 2.9 | inactive: 0.354 | inactive: 0.242 | inactive: 0.487 | inactive: 0.36 | inactive: 0.419 | inactive: 0.113 | inactive: 1.29 | inactive: -0.641 | inactive: 0.172 | inactive: 0.198 | inactive: -0.0136
2 | B2 | inactive: -0.119 | inactive: 0.524 | inactive: -0.256 | inactive: -0.266 | inactive: 0.15 | inactive: -0.061 | inactive: 1.04 | inactive: 1.12 | inactive: 0.959 | inactive: 0.359 | inactive: 3.24 | inactive: 5.76 | active: 16.6
3 | B3 | inactive: -0.498 | inactive: -0.301 | inactive: -0.726 | inactive: -0.569 | inactive: 1.04 | inactive: -0.251 | inactive: -0.322 | inactive: -0.132 | inactive: 0.223 | inactive: 1.3 | inactive: 1.05 | inactive: 0.0044 | inactive: -0.379
4 | B4 | inactive: 0.308 | inactive: -0.313 | inactive: 0.695 | inactive: -0.559 | inactive: -0.373 | inactive: -0.321 | inactive: -0.202 | inactive: -0.284 | inactive: -0.283 | inactive: -0.174 | inactive: 3.47 | inactive: 0.252 | active: 5.37
5 | B5 | inactive: 0.378 | inactive: 0.254 | inactive: 0.365 | inactive: 0.513 | active: 9.95 | inactive: 0.421 | inactive: 0 | inactive: 0.546 | inactive: 0.532 | inactive: -0.264 | inactive: -0.0789 | inactive: 0.548 | inactive: 0.17
6 | B6 | inactive: -0.107 | inactive: 1.19 | inactive: 1.87 | inactive: 0.197 | inactive: 1.1 | inactive: 0.689 | inactive: 0.887 | inactive: 2.61 | inactive: 1.65 | inactive: 0.289 | inactive: 0.0659 | inactive: 0.969 | inactive: 0.124
7 | B7 | inactive: 0.5 | inactive: 0.303 | inactive: 1.1 | inactive: 0.0492 | inactive: 0.111 | inactive: 2.7 | inactive: -0.0402 | inactive: 1.63 | inactive: 0.582 | inactive: 0.436 | inactive: -0.127 | inactive: 0.26 | inactive: 0.0569
8 | B8 | inactive: -0.0717 | inactive: -0.255 | inactive: -0.036 | inactive: -0.135 | inactive: -0.203 | inactive: -0.0314 | inactive: -0.27 | inactive: -0.568 | inactive: -0.285 | inactive: -0.11 | inactive: -0.295 | inactive: -0.218 | inactive: -0.212
9 | B9 | inactive: -0.00823 | inactive: -0.0146 | inactive: -0.44 | inactive: -0.245 | inactive: 0.432 | inactive: 0.302 | inactive: 0.883 | inactive: -0.278 | inactive: 0.0336 | inactive: -0.24 | active: 10.8 | inactive: 1.96 | active: 6.09
10 | B10 | inactive: 0.55 | inactive: 1.61 | inactive: 0.428 | inactive: 0.645 | inactive: 0.909 | inactive: 0.169 | inactive: 0.405 | inactive: 0.454 | inactive: 2.73 | inactive: -0.442 | inactive: 0.139 | inactive: 0.214 | inactive: 0.297
11 | B11 | inactive: 1.52 | inactive: 0.444 | inactive: 0.713 | inactive: 0.189 | inactive: -0.016 | inactive: 0.434 | inactive: -0.141 | inactive: 0.872 | inactive: 0.452 | inactive: -0.12 | inactive: 0.0697 | inactive: 0.0956 | inactive: -0.0301
12 | B12 | inactive: -0.0148 | inactive: 0.119 | inactive: 0.0597 | inactive: 0.103 | inactive: -0.166 | inactive: 0.107 | inactive: 0.0244 | inactive: -0.153 | inactive: 0.232 | inactive: -0.37 | inactive: -0.115 | inactive: 0.034 | inactive: -0.104
13 | B13 | inactive: 0.698 | inactive: 0.835 | active: 37.2 | active: 74 | inactive: 1.86 | inactive: 0.574 | inactive: 0.803 | inactive: 0.202 | inactive: 0.837 | inactive: -0.548 | inactive: 0.115 | inactive: 0.755 | inactive: 0.387
